Reference: paper PMC4336329 (PLoS ONE, 2015)
Hit rate of the full screen: of about 310,000 compounds, about 2,200 (0.71%) showed an effect of 50% or more. The effect is printed as a negative number. The list shows a part of the results.

What follows are compounds tested against human ether-à-go-go-related gene (hERG) potassium channel (human, UniProt Q12809) (assay: primary screen, population patch clamp on CHO cells stably expressing hERG).
Sequence of human ether-à-go-go-related gene (hERG) potassium channel (Q12809 whole entry, looked up): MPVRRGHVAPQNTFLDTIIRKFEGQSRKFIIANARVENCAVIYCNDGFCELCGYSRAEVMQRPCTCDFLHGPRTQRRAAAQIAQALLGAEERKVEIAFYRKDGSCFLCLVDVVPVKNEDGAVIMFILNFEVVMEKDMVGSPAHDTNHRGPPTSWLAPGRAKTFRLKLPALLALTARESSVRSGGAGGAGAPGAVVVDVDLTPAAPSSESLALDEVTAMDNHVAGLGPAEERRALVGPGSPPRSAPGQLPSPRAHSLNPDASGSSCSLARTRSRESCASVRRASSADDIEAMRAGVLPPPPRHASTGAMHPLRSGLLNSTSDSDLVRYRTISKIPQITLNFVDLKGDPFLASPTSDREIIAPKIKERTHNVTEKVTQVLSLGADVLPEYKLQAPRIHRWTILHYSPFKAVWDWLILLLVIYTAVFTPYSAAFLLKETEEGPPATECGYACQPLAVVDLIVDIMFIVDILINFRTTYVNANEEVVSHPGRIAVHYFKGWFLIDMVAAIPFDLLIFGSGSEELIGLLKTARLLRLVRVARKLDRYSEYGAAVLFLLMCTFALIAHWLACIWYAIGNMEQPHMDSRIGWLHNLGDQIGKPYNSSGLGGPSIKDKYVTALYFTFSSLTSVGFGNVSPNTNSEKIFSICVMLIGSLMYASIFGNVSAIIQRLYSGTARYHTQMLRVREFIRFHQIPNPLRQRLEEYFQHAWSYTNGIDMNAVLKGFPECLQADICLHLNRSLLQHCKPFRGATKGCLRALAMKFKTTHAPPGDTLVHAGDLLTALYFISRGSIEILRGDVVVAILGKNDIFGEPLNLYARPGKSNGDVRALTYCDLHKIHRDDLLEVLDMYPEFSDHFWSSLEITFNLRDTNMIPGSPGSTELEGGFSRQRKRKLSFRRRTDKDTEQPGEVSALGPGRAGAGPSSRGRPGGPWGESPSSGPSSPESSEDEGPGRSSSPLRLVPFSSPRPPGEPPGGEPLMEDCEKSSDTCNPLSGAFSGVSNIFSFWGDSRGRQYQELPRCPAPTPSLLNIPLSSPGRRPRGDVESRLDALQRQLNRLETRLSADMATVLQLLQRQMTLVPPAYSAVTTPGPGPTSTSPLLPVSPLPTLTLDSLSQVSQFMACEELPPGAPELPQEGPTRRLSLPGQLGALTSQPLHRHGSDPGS

Structure (SMILES) | hERG current change (%, negative = inhibition) at 1uM [%]
CCN(CC)CCn1c(NC(=O)c2ccc(C)cc2)nc2ccccc21 | -28
CSC1=N/C(=C\c2cccnc2)C(=O)N1c1ccccc1 | 5.13
CCCc1nc2ccccc2c(C(=O)OCC(=O)N2CCc3ccccc32)c1CC | 5.31
COc1cc2ccccc2cc1C(=O)Nc1ccccc1N1CCCC1 | 0.53
CCOC(=O)C1CCN(C(=O)c2ccc(OC)cc2OC)CC1 | -7.46
CN(C)c1cc(-c2ccccc2)nc(N)n1 | 6.99
Cc1cccc(OCCSc2nnc(-c3ccoc3C)n2C)c1 | -12.2
O=C1C=C(c2ccc(Oc3ccccc3)cc2)C[C@@H](c2ccc(Cl)cc2)C1 | 15.5
Cn1ncc2c(Nc3cccc4ccccc34)ncnc21 | 1.62
COc1ccc(N2CCN(CC(=O)Nc3ncc(C)s3)CC2)cc1 | 11.5
CC/C(=N\NC(=O)c1nnn(-c2nonc2N)c1-c1cccs1)c1ccccc1 | 19
Cc1ccc(SC(C)C(=O)Nc2cccc(N(C)S(C)(=O)=O)c2)cc1 (stereo not drawn) | 1.57
COc1ccc(C2(CNC(=O)c3cccc([N+](=O)[O-])c3)CCOCC2)cc1 | 11.5
Cc1cc(C)c(S(=O)(=O)N2CCCC(C(=O)NC3CCCC3)C2)c(C)c1 (stereo not drawn) | 3.01
COCCn1c(CNc2ccc(F)cc2)nnc1SCC(=O)Nc1ccc(OC)cc1OC | -6.27
Cc1ccc2nc(SCC(=O)Nc3cccc(S(=O)(=O)NC4=NCCCCC4)c3)[nH]c2c1 | 12.1
Cc1noc(C)c1COc1cccc(C(=O)NC(C)(C)C)c1 | 14.6
CCOc1nc(C)cc(C)c1S(=O)(=O)c1ccc(Cl)cc1 | 9.36
O=C(Oc1ccccc1)c1cccnc1Oc1ccccc1 | 8.41
CCCOCC(O)CC(Cc1ccccc1)C(=O)NN (stereo not drawn) | 7.96
COc1ccc(C(=O)COC(=O)c2nc3nccc(C)n3n2)cc1F | 2.15
Cc1ccc(P(=O)(O)c2ccc(C)cc2)cc1 | 8.61

Structure (SMILES) | hERG current change (%, negative = inhibition) at 1uM [%]
O=[N+]([O-])c1ccc2oc(-c3ccccc3)nc2c1 | 14.5
Cc1ccc(NC(=O)CNc2ccc(Cl)c(Cl)c2)cc1S(=O)(=O)N(C)C | -5.87
CCc1noc(C)c1C(=O)N1CCN(S(=O)(=O)c2ccc(C(C)=O)cc2)CC1 | -0.838
CC1CCCN(c2c([N+](=O)[O-])c(=O)oc3ccccc23)C1 (stereo not drawn) | -5.54
CC1=C(CC(=O)NCC(=O)NCC(=O)O)c2cc(F)ccc2/C1=C/c1ccc(S(C)=O)cc1 (stereo not drawn) | 13.1
COc1ccc(C2C3=C(CC(C)(C)CC3=O)OC(N)=C2[N+](=O)[O-])cc1 (stereo not drawn) | 5.43
CCN(CC)c1ccc(/C=N/n2c(-c3ccccc3Br)n[nH]c2=S)cc1 | 5.42
Cc1ccc(C)c(NC(=O)CCCCCCCCCCC2COCCO2)c1 (stereo not drawn) | 6.1
COc1cc(CNc2nnnn2C)ccc1OCc1c(F)cccc1Cl | 6.07
O=C(CS(=O)(=O)c1cn(Cc2ccc(F)cc2)c2ccccc12)N1CCOCC1 | 8.87
Cc1cnc(NC(=O)CSc2nnc(-c3cccs3)n2C)s1 | -13.2
CCOC(=O)C(CC)(CC)/C(C)=N/NC(=O)CC#N | 5.29
O=S(=O)(NCc1c(Cl)cccc1Oc1ccccc1)c1ccc(F)cc1 | 4.99
COC(=O)CCCC1=CC2=CC(=O)C(C)(OC(=O)c3cccs3)C(=O)C2=CN1c1cccc(C#N)c1 (stereo not drawn) | 10.6
Cc1cccc(CN2CCSc3sccc3C2=O)c1 | 13.4
S=c1[nH]nc(Cc2cccs2)n1-c1ccccc1 | 9.84
CCCCCCn1c(Br)nc2c1c(=O)n(C)c(=O)n2C | 3.86
CNC(=S)NNC(=O)c1ccc(C(C)(C)C)cc1 | 9.52
COc1ccc(NC(=O)c2cn(-c3ccccc3)nc2-c2ccncc2)cc1 | -0.625
Cc1cccc(N=Nc2ccc(N(C)C)cc2)c1 | 7.51
Cn1c2c(c(=O)n(C)c1=O)C(NC(=O)c1cccs1)(C(F)(F)F)C(=O)N2 (stereo not drawn) | 7.42
COc1ccc(NC(=O)CSc2nnc(CCC(=O)O)c(=O)n2N)cc1 | 14.6

Structure (SMILES) | hERG current change (%, negative = inhibition) at 1uM [%]
Cc1ccccc1Cn1c(Cc2ccccc2)nc2ccccc21 | -3.83
CCC(C)NC(=O)c1ccc(CS(=O)(=O)Cc2ccc(Cl)cc2)o1 (stereo not drawn) | 2.09
C=C1CCc2c([nH]c3ccc(OCC(C)C)cc23)C1=O | 9.92
CN(C)CCN(C(=O)c1ccc(S(=O)(=O)N(C)c2ccccc2)cc1)c1nc2ccc(Cl)cc2s1.Cl | 6.16
COc1cc2c(cc1OC)C(c1ccccc1)N(S(C)(=O)=O)CC2 (stereo not drawn) | 7.05
Cc1ccc(C(O)(C(=O)NNc2ccc3ccccc3n2)c2ccc(C)cc2)cc1.Cl | 9.73
O=[N+]([O-])c1cccc(-n2nncc2-c2ccccc2)c1 | 4.38
CC(=O)COC(=O)c1cc(-c2ccc(C)cc2)nc2ccccc12 | -0.463
CCOC(=O)CSc1nc2ccccc2n1CC(=O)N1CCN(c2ccccc2)CC1 | -18.7
CCN(CC)CCNC(=O)c1cc(Cl)c(N)cc1OC.Cl | 12.8
COc1ccc(OC)c(NC(=O)COC(=O)c2cc3c(s2)CCC3)c1 | 10.2
O=C1NC2(CCCCCC2)C(=O)N1Cc1cccc([N+](=O)[O-])c1 | 10.1
COc1cccc(C(=O)NC(=S)Nc2ccc3c4c(cccc24)CC3)c1 | 8.61
CC1=C(C(=O)OCC2CCCO2)C(c2cccc(O)c2)NC(=O)N1 (stereo not drawn) | 10.9
O=C(CCCN1C(=O)NC2(CCCC2)C1=O)N1CCN(S(=O)(=O)c2ccccc2)CC1 | 11.3
Cc1ccc(-c2nnn(CC(=O)N(c3ccccc3F)C(C(=O)NC3CCCC3)c3ccncc3)n2)o1 (stereo not drawn) | 14.5
Cc1csc(NC(=O)CSCC(=O)O)c1-c1nc2ccccc2s1 | 7.17
O/N=C/c1ccc2cccc(OCc3ccccc3)c2n1 | 11.9
COc1cccc(/C=N/NC(=O)C(c2ccncc2)N2CCOCC2)c1 (stereo not drawn) | 11.2
Cc1ccc(-n2nc3c(=O)n(CC(=O)NCCC4=CCCCC4)nc(C)c3c2C)cc1 | 8.77
CCOC(=O)N1CCN(C(=O)c2ccccc2NC(=O)c2ccc(Br)cc2)CC1 | -3.07
O=C(c1cn(-c2ccccc2)nc1-c1cccs1)N(CCO)Cc1ccccc1 | 8.41

Structure (SMILES) | hERG current change (%, negative = inhibition) at 1uM [%]
CCC(=O)c1ccc(OCC(O)CNCc2ccc(F)cc2)cc1 (stereo not drawn) | -12.8
CCN1C(=O)CSC1=Nc1cccc(C(=O)O)c1 | 15.2
COc1ccc(NC(=O)CSc2nc(N)c3cc4c(nc3n2)CCCC4)c(OC)c1 | -1.87
COc1ccc(S(=O)(=O)N(Cc2ccccc2)Cc2nc3ccccc3c(=O)[nH]2)cc1 | 8.77
CCOC(=O)CSc1nnc(-c2ccc(Cl)cc2Cl)o1 | -2.76
C=CC[C@H]1Cc2c(cccc2[N+](=O)[O-])[C@H](CC=C)N1 | 6.88
O=C(O)c1ccc(S(=O)(=O)c2ccc([N+](=O)[O-])cc2[N+](=O)[O-])cc1 | 6.1
COc1cccc(CN(C)CC(=O)NNC(=O)c2ccc(Cl)cc2)c1 | 0.278
CCOC(=O)N1CCC(N2Cc3cccc(C(=O)Nc4ccc(OCC)cc4)c3C2=O)CC1 | 13.3
O=C(CN1C(=O)NC2(CCCC2)C1=O)Nc1ccc(S(=O)(=O)N2CCOCC2)cc1 | 10.2
CCOc1ccc2oc(-c3ccccc3)c(C(=O)N3CCN(C)CC3)c2c1 | 9.85
O=C(CN1CCC(n2nnc3ccccc32)CC1)Nc1ccc2c(c1)CCC2 | -1.51
Cc1cc(C)c(S(=O)(=O)Nc2ccc3c(c2)CCC3)c(C)c1 | 4.55
CC(=O)c1c(N2CCC(C(N)=O)CC2)nc(=S)n(-c2ccccc2)c1C | -2.8
Cc1nn(-c2ccccn2)c2nc(-c3cccs3)cc(C(=O)NCc3ccco3)c12 | -13.2
O=C(CN1C(=O)S/C(=C\c2ccccc2Cl)C1=O)NCCCn1ccnc1 | 0.231
CC(=O)c1ccc(-c2ccc(Cn3c(C)nc4cc(N)c(C)nc43)cc2)cc1 | 13
N#C/C(=C/c1cccs1)c1ccccn1 | 18.6
O=C(COC(=O)C12CC3CC(CC(Cl)(C3)C1)C2)Nc1ccc2[nH]c(=O)[nH]c2c1 | 11.1
OCCCn1c(C2CCCN2c2nc(-c3ccc(F)cc3)cs2)nc2cc(Cl)c(Cl)cc21 (stereo not drawn) | 11
O=C(CCC(=O)c1cccs1)OCc1ccc([N+](=O)[O-])cc1 | 2.72
